{
  "source": "paper PMC12136788",
  "binders": {"B1": {"name": "chr2:74714714:74714715:+_ENSMUSG00000027099_ENSMUST00000028511|mus_hu|FALSE|FALSE (ssRNA)", "RNA": "GGGAGUUCUACAGUCCGACGAUCAUGUUUCAAGGAAACAAAAAUUUCAAGAUACAGAAUACAACAUAUCAGAUUAAAUAAUUCAGAAUUAUUUUAAUGUAUACACAAAUAACAAUAUAAAGCACAUACAUAAGAUACAUUAUACAACAGAGGAUUGAGCAUCA"}, "B2": {"name": "38807162_38812148_1086_CDS_ENSG00000006715_ENST00000395969|human|control|control (ssRNA)", "RNA": "GGGAGUUCUACAGUCCGACGAUCCUCCACCAGGUGAUUUAUAUAUGCCAAGCCAAUAUCCAGAAUCUUAUGUCUUUUAAUAUUUUUUUGGCUAAUUUCAGCUGCCAUCAAUGCUUCUUCAUAUUUCUUCUUUUCAAGGAGCCACAACAGAGGAUUGAGCAUCA"}, "B3": {"name": "chr2:216986912:216986913:+_ENSG00000079246_ENST00000392132|hu_mus|FALSE|FALSE (ssRNA)", "RNA": "GGGAGUUCUACAGUCCGACGAUCCAGUUGUCGUAGACUCUCACUGAAGGAAUAAAUUUCAUCCAGCCCGUCUUCGCCUUCUAAGGACAGCAUCACCCUUGUCACCAUGCGGAUGCCUUCCUUUUGCUGCUCAGUAAGUCCUUUCAACAGAGGAUUGAGCAUCA"}, "B4": {"name": "chr14:62154062:62154063:-_ENSMUSG00000021930_ENSMUST00000100496|mus_hu|FALSE|FALSE (ssRNA)", "RNA": "GGGAGUUCUACAGUCCGACGAUCUUUUUCAAAACCAGGUGGAGGCGUAUGAUAAAACUCACUGAACUGGCAAUCCAAAAUUGCACUGUCAUCAACAUAAACAACUGGAUACACUGUCCCUCGUAUACCUGAUGCUGGACAAUGCAACAGAGGAUUGAGCAUCA"}, "B5": {"name": "chr4:95585729:95585730:+_ENSG00000163110_ENST00000317968|hu_hu|motif|central (ssRNA)", "RNA": "GGGAGUUCUACAGUCCGACGAUCGAUUACAGGCGUGAGCCACCGCGCUCAGCCUACAAGCAAUUUUUUAAAAACUGACACCGGUUACUGAUAAAAUUCUCUGUUUAAAAUCCUAUUUACUAUUUUAAAGAUAAGUAUUAGUUUCAACAGAGGAUUGAGCAUCA"}, "B6": {"name": "chr4:103517381:103517382:+_ENSG00000109320_ENST00000505458|hu_hu|FALSE|FALSE (ssRNA)", "RNA": "GGGAGUUCUACAGUCCGACGAUCCUCACCAUUCCCAACGGUGGCCUCGCUGGGCUCCUGAUCUUGCUCUGUGGUUUCAAUAACUUUCCCAAAGAGGUUUACAGUGUUUUUGUCAUCACUUUUGUCACAACCUUCAGGGUCCUUCAACAGAGGAUUGAGCAUCA"}, "B7": {"name": "chr11:69466514:69466515:+_ENSG00000110092_ENST00000227507|hu_mus|FALSE|FALSE (ssRNA)", "RNA": "GGGAGUUCUACAGUCCGACGAUCCAUUUCUCAACCUAAAAACUCUUCUACUUUAACAAUGGUUUGCUGUAUUUUUUUUCCUUCCUUUUUAAAGCAAUGUUUCUUAAGCUUUUUUUUAAAAACAUAUAAAAGAAUCAAAACUCCCAACAGAGGAUUGAGCAUCA"}, "B8": {"name": "72891450_72891570_2619_CDS_ENSG00000009954_ENST00000339594|human|control|control (ssRNA)", "RNA": "GGGAGUUCUACAGUCCGACGAUCCCGUUCCUUCCACAACUCUGCAGACAUCUGCUGUCUGGUCUCCAUGUGGUCUUGCACUGAGUAUGUCAUGAGGAUCCGGUGGCACAGUGCUGUCAAGAUCUGUAGCUUCUCCUCUGACGUCAACAGAGGAUUGAGCAUCA"}, "B9": {"name": "chr3:119450855:119450856:-_ENSMUSG00000028134_ENSMUST00000029780|mus_hu|mus_mus_mus_hu_False|98_98 (ssRNA)", "RNA": "GGGAGUUCUACAGUCCGACGAUCUGUGGUGCCACUAAGAGGUGUAUUUGCUGUCUGGACAGCUGUCACAGCUUGAAGAACUGCCUGAGCACGUUGGUUUAAUGUAUUAUCUGUCUUUAGUUCUUUGUGAUUCGAGUACUGGAUCAACAGAGGAUUGAGCAUCA"}, "B10": {"name": "chr17:45757422:45757423:+_ENSG00000108424_ENST00000290158|hu_hu|FALSE|FALSE (ssRNA)", "RNA": "GGGAGUUCUACAGUCCGACGAUCUACAUCCUUCCCAAAUGCUGUACAUAAGUCCCCUAUUAGUCCAGCAGCACAAGCUACUACUCCAUCUGUGUGAUCCUCAUCUCCAGCAAUGUGGUCAAUGAAAGACAGAAUAAAUUCUACCAACAGAGGAUUGAGCAUCA"}, "B11": {"name": "155306504_155306716_2976_CDS_ENSMUSG00000042699_ENSMUST00000042141|mouse|control|control (ssRNA)", "RNA": "GGGAGUUCUACAGUCCGACGAUCCUGUACUUUGGCCUCCCAAGUCAUUCUCAGUGUAGCCAUAUUGAGUCUCUUCUGCUCACAAAAACGUAUUUCUGCUUCUUCUCCACUCAUCCUAGCAUCAUCCCAGGCUUGGAAUACUGACAACAGAGGAUUGAGCAUCA"}, "B12": {"name": "chr10:106025898:106025899:+_ENSG00000148834_ENST00000369713|hu_hu|FALSE|FALSE (ssRNA)", "RNA": "GGGAGUUCUACAGUCCGACGAUCUACACACUCAUUUAACUUCAUUGCUUCCAGCCGUUCAAACCAGGGCCAGAUGAGGUAAUCAAUCAUAGAGAUAGAAUUGCCACCAAAGAAGGUCGUCUUCUUAUUAGUCAGAACCUCCUCCAACAGAGGAUUGAGCAUCA"}, "B13": {"name": "chr4:108167797:108167798:+_ENSMUSG00000034610_ENSMUST00000043368|mus_hu|motif|central (ssRNA)", "RNA": "GGGAGUUCUACAGUCCGACGAUCCUCCACAAUUUCCUGACGGACUCUGAGGUCAUCAUCUGUUAUUCCAUGUUCUUUUGCGGAUUCAAUGACUGCAACACUUAAAGCAGCCAAGUGGGCAGGGGAAGGAGGUGGCAGAGAACGCAACAGAGGAUUGAGCAUCA"}, "B14": {"name": "chr5:33369694:33369695:+_ENSMUSG00000018965_ENSMUST00000019109|mus_hu|FALSE|FALSE (ssRNA)", "RNA": "GGGAGUUCUACAGUCCGACGAUCGGAAUCCUCGUUUAGUGUGUCCAGCUCAGCUAUGGCAUCAUCGAAGGCUUGUUUGGCUAAGAGGCAGGCUUGCUCAGGUGCAUUCUGGAUCUCAUAGUAGAACACGGAGAAGUUGAGGGCCAACAGAGGAUUGAGCAUCA"}},
  "note": "The other results are listed elsewhere or left out.",
  "data": [
    {"target": "T1, UNK ZnF1-3 (human, UniProt Q9C0B0 31-174)", "T1 sequence": "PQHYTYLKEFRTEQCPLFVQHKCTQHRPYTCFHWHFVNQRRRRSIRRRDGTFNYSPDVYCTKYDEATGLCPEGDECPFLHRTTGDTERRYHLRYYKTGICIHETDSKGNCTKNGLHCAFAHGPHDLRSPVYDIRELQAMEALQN", "assay": "nsRBNS (natural sequence RNA bind-n-seq); RBNS binding buffer (assumed for nsRBNS): 25 mM Tris pH 7.5, 150 mM KCl, 3 mM MgCl2, 0.01% Triton X-100, 500 ug/ml BSA, 20 U/ml SUPERase-In, 4 C; UNK is unkempt and MSI1 is Musashi-1; names of the RNAs are library labels; protein concentration not given here; high values mean tight binding", "units": {"binding signal": "enrichment R"}, "values": [
      {"binder": "B1", "binding signal": 0.68},
      {"binder": "B2", "binding signal": 1.18},
      {"binder": "B3", "binding signal": 0.794},
      {"binder": "B4", "binding signal": 0.993},
      {"binder": "B5", "binding signal": 1.89},
      {"binder": "B6", "binding signal": 0.692},
      {"binder": "B7", "binding signal": 1.24},
      {"binder": "B8", "binding signal": 0.529},
      {"binder": "B9", "binding signal": 0.709},
      {"binder": "B10", "binding signal": 1.14},
      {"binder": "B11", "binding signal": 0.801},
      {"binder": "B12", "binding signal": 1.24},
      {"binder": "B13", "binding signal": 1.17},
      {"binder": "B14", "binding signal": 1.25}
    ]}
  ]
}
